Out of some 46,000 compounds screened, about 60 (0.1%) were called active. About 3% were inconclusive and are not listed. Calls follow the shape of the dose curve; as a rule, active = well fitted inhibition curve with a large enough effect; inconclusive = small, poorly fitted or top-dose-only effect; inactive = no such curve, though single readings can be large or run the other way. Some of the results follow.
experiment: Primary qHTS assay for Inhibitors of ovarian cancer metastasis using an organotypic tumor microenvironment (TME) model.; also: nearly all actives have a fitted effect of over 65% in size;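 as to activity change, negative = inhibition: plate controls were DMSO wells for no effect and tomatine positive control wells for full effect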; details: SKOV3ip1-GFP adhesion/invasion on 3D omental model, fluorescence; series mostly up to 45.8 µM; activity change, negative = inhibition: at the top concentration
In short: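 A 3D layer of primary human omental fibroblasts, mesothelial cells, fibronectin and collagen I, grown 48 hr, received SKOV3ip1-GFP cells in serum-free medium plus compounds at 0.36-46 umol/L. After 2 hr RT and 16 hr 37 C, fixed adherent GFP cells were counted; normalized to DMSO and tomatine.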

outcome, inactive:
CCCn1c(=O)n(-c2ccccc2)c(=O)c2sc3ccccc3c21
Cc1ccc2ccc(C(Nc3ccccn3)c3ccccc3)c(O)c2n1 (configuration not stated)
Cc1ccc(Nc2c(-c3ccc(C)cc3)nc3cnccn23)cc1
CCOc1ccc(NC(=O)C(C)Sc2nnc3cc(C)c4ccccc4n23)cc1 (configuration not stated)
Cc1nc2c(-c3ccccc3)c(C)nn2c(C)c1CCC(=O)NCc1cccc(Cl)c1
CC(=O)Nc1c(C)nn(-c2ccccc2)c1N1CCC(C(=O)Nc2cc(Cl)ccc2C)CC1
CC(C)c1ccc(CNCCSc2nnnn2C)cc1
CCOC(=O)c1c(C)c(C(=O)NCCc2ccc(OC)cc2)c(C)n1C
CCC(Oc1ccccc1)C(=O)Nc1ccccc1OCc1cc(=O)n2ccccc2n1 (configuration not stated)
CCC(C)NC(=O)c1ccc2c(c1)N(Cc1ccccc1)C(=O)c1ccccc1S2(=O)=O (configuration not stated)
CN1CCN(CCCNC(=O)c2cnn(-c3ccccc3)c2C2CCN(C(=O)OC(C)(C)C)CC2)CC1
Fc1ccc(CNc2ncnc3c2c(-c2ccccc2)cn3-c2ccccc2)cc1
Cc1ccc(C)c(NC(=O)CCNS(=O)(=O)c2ccc3c(c2)CCCC(=O)N3)c1
Cc1ccc(C)c(N2CCN(C(=O)CN3C(=O)CSc4c3c(C)nn4-c3ccccc3)CC2)c1
CCC(Sc1nncn2c1cc1sccc12)C(=O)Nc1cccc(OC)c1 (configuration not stated)
CCOC(=O)CC(NC(=O)Cn1nnc(-c2ccccc2C)n1)c1ccc(OC)cc1 (configuration not stated)
CCc1ccc(C(=O)c2cn(CC(=O)Nc3ccc(F)cc3)c3cc4c(cc3c2=O)OCO4)cc1
COc1ccc(NC(=O)Cn2c(C)c3cnn(-c4ccccc4)c(=O)c3c2C)c(OC)c1
Cc1cccc(-c2noc(C3CC(=O)N(c4ccc5c(c4)OCCO5)C3)n2)c1 (configuration not stated)
Clc1ccccc1-c1nc(Nc2ccccc2)nc2ccc(Br)cc12
Cc1ccccc1NC(=O)CC1C(=O)NCCN1C(=O)c1cccc(Cl)c1 (configuration not stated)

Activity change, negative = inhibition, inactive:
CN(C(=O)CCNC(=O)Cn1cnc2ccccc2c1=O)c1ccccc1F 0.94%
COc1cc(CCc2cc(NC(=O)c3ccc(N4C[C@@H](C)N[C@@H](C)C4)cc3)n[nH]2)cc(OC)c1 -14.2%
NC(=O)c1cc(S(=O)(=O)NCc2ccccc2)cs1 6.64%
COc1cccc(-c2nc3c(c(SCc4ccccc4)n2)Cc2c(CO)cnc(C)c2O3)c1 -0.445%
CN(C)CC=CC(=O)Nc1cc2c(Nc3ccc(F)c(Cl)c3)ncnc2cc1O[C@H]1CCOC1 -7.82%
C=Cc1ccc(CSc2nc(-c3ccc(OC)cc3)nc3c2Cc2c(CO)cnc(C)c2O3)cc1 -7.07%
CC(C)Cc1nn2c(=O)cc(COC(=O)c3cccc(NC(=O)CCc4ccccc4)c3)nc2s1 -2.38%
COC(=O)CN1C(=O)CSc2ccc(S(=O)(=O)Nc3ccc(Cl)cc3C)cc21 8.85%
CCOC(=O)CSc1nc2cc3c(cc2c(=O)n1CCCC(=O)NCc1ccc2c(c1)OCO2)OCO3 -3.12%
CCCOc1ccccc1C(=O)N1CCC(c2nc3ccccc3s2)CC1 -1.61%
Cc1cc(OCCCS(C)(=O)=O)cc(C)c1-c1cccc(COc2ccc3c(c2)OC[C@H]3CC(=O)O)c1 -9.14%
COc1ccc(C(=O)CN2C(=O)N(c3cc(C)cc(C)c3)S(=O)(=O)c3ccccc32)cc1 1.97%
Clc1ccc(CCNc2ncnc3c2c(-c2ccccc2)cn3-c2ccccc2)cc1 4.25%
NCCc1nnc(SCc2ccc(Cl)cc2)o1 -24.1%
COc1ccccc1C(=O)Nc1nc2ccc(S(=O)(=O)N3CCCC3)cc2s1 -3.36%
CCOC(=O)c1ccc(Nc2c(-c3ccc(O)cc3)nc3nc[nH]n23)cc1 12.1%
COc1cc(C(=O)Nc2cc(C)ccc2OCc2cc(=O)n3cc(C)sc3n2)cc(OC)c1OC -4.92%
CCCCC(=O)Nc1cccc(OCc2cc(=O)n3ccccc3n2)c1 5.31%
COc1ccccc1CNC(=O)Cn1ncc2c(=O)oc3ccc(C)cc3c21 -1.47%
CCc1ccccc1NC(=O)c1cc(S(=O)(=O)NCCc2ccc(OC)c(OC)c2)ccc1F -1.14%
CCOC(=O)C1CCCN(c2ncnc3c2cnn3-c2ccc(C)c(Cl)c2)C1 (configuration not stated) 3.76%
CCOC(=O)c1ccc(NC(=O)c2oc3ccc4c(c3c2C)C(=O)CC(C)(CC)O4)cc1 (configuration not stated) -3.58%
Cn1c(=O)c2c(SCC(=O)NCc3ccco3)nc(-c3ccccc3Cl)nc2n(C)c1=O 4.46%
Cc1ccc(NC(=O)CSc2nc3c(c(=O)[nH]2)CN(Cc2ccc4c(c2)OCO4)CC3)cc1C 10.9%
Cc1cccc(NC(=O)C(=O)NCC(c2cccnc2)N2CCOCC2)c1 (configuration not stated) -6.25%
CCCOc1ccc(C2c3c(-c4ccccc4O)n[nH]c3C(=O)N2Cc2ccncc2)cc1OCC (configuration not stated) 3.96%
COc1ccc(-c2noc(C3CC(=O)N(c4cc(C)cc(C)c4)C3)n2)cc1 (configuration not stated) 4.28%
O=C(Cc1ccc(F)cc1)N1CCC(c2nc3c(nnn3Cc3ccc(Cl)cc3)c(=O)[nH]2)CC1 11.9%
COc1ccc(/C=C/c2nc(C#N)c(N3CCN(c4ccccc4)CC3)o2)cc1OC 5.98%
CN(C(=O)CSc1cn(CC(=O)N2CCCCC2)c2ccccc12)c1ccccc1 -8.59%
Cc1ccc(CCNC(=O)C2CCCN(Cc3nc(-c4cccc(Cl)c4)oc3C)C2)cc1 (configuration not stated) -43.5%
CCc1nn(CC(=O)Nc2cccc(C)c2C)c(=O)c2cc3sccc3n12 8.41%
Cc1cccc(CNC(=O)c2cnc3sc(N4CCCCC4)nn3c2=O)c1 -4.82%
CC1=C(C(=O)Nc2ccc(Cl)cc2)C(C(C)C)n2nc(SCc3cccc(C)c3)nc2N1 (configuration not stated) 9.49%
Cc1ccc(NC(=O)CSc2nc3ccccc3c3nc(CCn4c(C)nc5ccccc54)nn23)cc1F -1.64%
Cc1c(Cl)cccc1NC(=O)CCS(=O)(=O)c1ccc(Br)s1 7.52%
NC(=O)c1cc(S(=O)(=O)NCC2CCC(C(=O)Nc3cccc(Cl)c3)CC2)cs1 (configuration not stated) -9.84%
CC(C)(C)C1CCc2onc(C(=O)Nc3sc4c(c3C(N)=O)CCCC4)c2C1 (configuration not stated) -2.3%
CCOC(=O)c1cc(-c2ccccc2)n(CCCC(=O)Nc2ccc(CC)cc2)c1C -28.2%
O=C(c1ccc2c(Cl)c3c(nc2c1)CCCC3)N1CCN(c2ccccc2)CC1 2.46%
Cc1c2cnn(-c3ccccc3)c(=O)c2c(C)n1CCCC(=O)Nc1ccc(F)cc1F -2.46%
CCOc1ccccc1NS(=O)(=O)c1c(-c2ccc(C)cc2)csc1C(=O)OC -5.02%
Cn1c(=O)n(C)c2cc(S(=O)(=O)Nc3ccccc3C(=O)O)ccc21 5.05%
CCOC(=O)c1cc(-c2ccccc2)n(CC(=O)NCc2ccccc2OC)c1C -7.04%
CN(C(=O)CSc1nnc2[nH]c(=O)cc(-c3ccccc3)n12)c1ccccc1 -7.19%
COCCNC(=O)c1ccc2c(c1)N(Cc1cccc(Cl)c1)C(=O)c1ccccc1S2=O (configuration not stated) 1.16%
O=C(Nc1ccc(F)c(F)c1)C1CCCN(S(=O)(=O)c2cccc3nonc23)C1 (configuration not stated) 1.19%
Cn1cc(C[C@@H](N)C(=O)O)c2ccccc21 6.13% [at 23.2 µM]
Cc1cccc(NC(=O)C2CCCN(S(=O)(=O)c3c(C)noc3/C=C/N(C)C)C2)c1C (configuration not stated) 0.735%
COc1ccc(C(=O)CCC(=O)Nc2ccccc2C)cc1 3.67%
COc1ccccc1NC(=O)CSCc1cc(=O)c2c(C)cc(C)cc2[nH]1 -9.84%
Cc1cc(C)c2c(=O)cc(CSCC(=O)Nc3nnc(C)s3)[nH]c2c1 -1.76%
CCCNC(=O)Nc1cc(C(=O)NCc2cccc(OCC)c2)ccc1N1CCCC1 13%
COc1ccc(N(C)C(=O)NCc2noc3ccc(C)cc23)c(OC)c1 -0.616%
CCC(=O)N1CCc2cc(Br)cc(S(=O)(=O)CCC(=O)Nc3ccccc3C)c21 4.75%
Cc1cc2nc3c(=O)n(C)c(=O)n(C)c3nc2cc1N=CN(C)C 2.76%
CC(C)(C)c1ccc(C(=O)Nc2ccccc2C(=O)OCc2cc(=O)n3ccsc3n2)cc1 0.221%
Cc1ccc(CN2CCN(C3CCN(C(=O)OC(C)(C)C)CC3)C(=O)C2=O)cc1 2.67%
Cc1ccc2occ(CC(=O)Nc3ccc(S(N)(=O)=O)cc3)c2c1 -7.02%
COc1ccc(NC(=O)CCc2c(C)nn(-c3ccc(N4CCOCC4)nn3)c2C)cc1Cl 6.56%
COc1ccc(-c2nc(SCC(=O)NCCCc3ccccc3)n[nH]2)cc1 9.47%
Cc1cc(OCC(=O)Nc2sc3c(c2C(N)=O)CCCC3)ccc1C(C)C 4.65%
Cc1ccc(N(CC(=O)NC(C)c2ccccc2)S(=O)(=O)c2c(C)noc2C)cc1 (configuration not stated) 3.56%
Cc1ccc(NC(=O)c2cc(S(=O)(=O)N3CCOCC3)c(Cl)cc2Cl)cc1 -2.94%
Cc1ccc(NC(=O)N2CCC(n3c(C)nc4cccnc43)CC2)c(Cl)c1 -5.8%
CCOc1ccc(NC(=O)CSc2ncc3c(n2)-c2ccccc2N(C)S3(=O)=O)cc1 1.69%
COCCNC(=O)CCC(=O)NNc1nc2ccccc2c2nc(-c3ccccc3)nn12 -1.23%
CCC(Oc1ccccc1)C(=O)Nc1nnc(S(=O)(=O)Nc2ccccc2)s1 (configuration not stated) -3.05%
CCc1ccc(CNC(=O)c2ccc(CSc3nc4ccncc4n3Cc3ccccc3)cc2)cc1 -4.06%
CCCCC(CC)COC(=O)C(C#N)=C(c1ccccc1)c1ccccc1 (configuration not stated) 25.1%
Nc1c2c(nc3ccccc13)CCCC2 -7.93%
Cc1cc(C)cc(NC(=O)C2CCN(S(=O)(=O)c3cccc4nonc34)CC2)c1 -0.275%
COc1ccc(CNC(=O)Nc2cn(CC(C)C)c(=O)c3ccccc23)c(OC)c1 -10.7%
Cc1noc(-c2ccccc2OCC(=O)Nc2cccc([N+](=O)[O-])c2)n1 -0.114%
CC(=O)c1ccc(N2CCN(C(=O)NCc3noc4ccc(C)cc34)CC2)cc1 14.2%
COC(=O)CCc1sc(Nc2ccc(OC)cc2)nc1-c1ccc(OC)cc1 0.737%

Reference: PubChem BioAssay AID1963576 (National Center for Advancing Translational Sciences (NCATS), 2024)
